According to publication PMC5986797, “Laminin heparin-binding peptides bind to several growth factors and enhance diabetic wound healing” (Nature Communications, 2018):
These are yes or no findings as the source states them, for the method shown. Some results given as binding are weak or reduced against the parent protein; the word gives no strength.

Protein sequences, listed by entry. Tags and fused reporters are not part of them. Lines headed by an entry give the natural chain unless they say otherwise; changes in a name come on top. Chains listed by the source or under a name are the forms on record and can include a tag or linker. Residues count along the entry.
UniProt P09038, residues 143-288: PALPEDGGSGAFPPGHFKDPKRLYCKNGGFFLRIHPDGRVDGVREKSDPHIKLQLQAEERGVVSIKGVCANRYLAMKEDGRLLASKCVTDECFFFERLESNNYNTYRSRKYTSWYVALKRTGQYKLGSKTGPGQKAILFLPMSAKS
UniProt P01127, residues 82-190: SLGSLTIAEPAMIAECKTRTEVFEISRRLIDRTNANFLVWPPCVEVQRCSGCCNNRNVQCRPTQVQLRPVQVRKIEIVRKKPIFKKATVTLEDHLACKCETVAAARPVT
UniProt P05230, residues 16-155: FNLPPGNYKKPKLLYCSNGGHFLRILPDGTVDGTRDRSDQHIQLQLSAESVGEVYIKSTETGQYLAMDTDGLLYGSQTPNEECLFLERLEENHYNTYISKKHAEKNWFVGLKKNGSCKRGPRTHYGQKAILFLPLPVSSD
UniProt O76093, residues 28-207: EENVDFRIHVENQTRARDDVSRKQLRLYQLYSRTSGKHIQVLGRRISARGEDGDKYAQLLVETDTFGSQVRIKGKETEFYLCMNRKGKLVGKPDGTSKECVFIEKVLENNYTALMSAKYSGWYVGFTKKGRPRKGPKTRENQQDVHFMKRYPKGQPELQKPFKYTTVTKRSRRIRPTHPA
C–X–C motif ligand (CXCL)-12γ (P48061, form named): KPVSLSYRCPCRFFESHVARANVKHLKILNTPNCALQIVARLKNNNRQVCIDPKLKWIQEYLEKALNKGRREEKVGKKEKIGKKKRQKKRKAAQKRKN
UniProt P05019, residues 49-118: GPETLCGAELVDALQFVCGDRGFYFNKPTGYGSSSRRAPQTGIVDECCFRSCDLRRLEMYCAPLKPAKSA
UniProt Q16363: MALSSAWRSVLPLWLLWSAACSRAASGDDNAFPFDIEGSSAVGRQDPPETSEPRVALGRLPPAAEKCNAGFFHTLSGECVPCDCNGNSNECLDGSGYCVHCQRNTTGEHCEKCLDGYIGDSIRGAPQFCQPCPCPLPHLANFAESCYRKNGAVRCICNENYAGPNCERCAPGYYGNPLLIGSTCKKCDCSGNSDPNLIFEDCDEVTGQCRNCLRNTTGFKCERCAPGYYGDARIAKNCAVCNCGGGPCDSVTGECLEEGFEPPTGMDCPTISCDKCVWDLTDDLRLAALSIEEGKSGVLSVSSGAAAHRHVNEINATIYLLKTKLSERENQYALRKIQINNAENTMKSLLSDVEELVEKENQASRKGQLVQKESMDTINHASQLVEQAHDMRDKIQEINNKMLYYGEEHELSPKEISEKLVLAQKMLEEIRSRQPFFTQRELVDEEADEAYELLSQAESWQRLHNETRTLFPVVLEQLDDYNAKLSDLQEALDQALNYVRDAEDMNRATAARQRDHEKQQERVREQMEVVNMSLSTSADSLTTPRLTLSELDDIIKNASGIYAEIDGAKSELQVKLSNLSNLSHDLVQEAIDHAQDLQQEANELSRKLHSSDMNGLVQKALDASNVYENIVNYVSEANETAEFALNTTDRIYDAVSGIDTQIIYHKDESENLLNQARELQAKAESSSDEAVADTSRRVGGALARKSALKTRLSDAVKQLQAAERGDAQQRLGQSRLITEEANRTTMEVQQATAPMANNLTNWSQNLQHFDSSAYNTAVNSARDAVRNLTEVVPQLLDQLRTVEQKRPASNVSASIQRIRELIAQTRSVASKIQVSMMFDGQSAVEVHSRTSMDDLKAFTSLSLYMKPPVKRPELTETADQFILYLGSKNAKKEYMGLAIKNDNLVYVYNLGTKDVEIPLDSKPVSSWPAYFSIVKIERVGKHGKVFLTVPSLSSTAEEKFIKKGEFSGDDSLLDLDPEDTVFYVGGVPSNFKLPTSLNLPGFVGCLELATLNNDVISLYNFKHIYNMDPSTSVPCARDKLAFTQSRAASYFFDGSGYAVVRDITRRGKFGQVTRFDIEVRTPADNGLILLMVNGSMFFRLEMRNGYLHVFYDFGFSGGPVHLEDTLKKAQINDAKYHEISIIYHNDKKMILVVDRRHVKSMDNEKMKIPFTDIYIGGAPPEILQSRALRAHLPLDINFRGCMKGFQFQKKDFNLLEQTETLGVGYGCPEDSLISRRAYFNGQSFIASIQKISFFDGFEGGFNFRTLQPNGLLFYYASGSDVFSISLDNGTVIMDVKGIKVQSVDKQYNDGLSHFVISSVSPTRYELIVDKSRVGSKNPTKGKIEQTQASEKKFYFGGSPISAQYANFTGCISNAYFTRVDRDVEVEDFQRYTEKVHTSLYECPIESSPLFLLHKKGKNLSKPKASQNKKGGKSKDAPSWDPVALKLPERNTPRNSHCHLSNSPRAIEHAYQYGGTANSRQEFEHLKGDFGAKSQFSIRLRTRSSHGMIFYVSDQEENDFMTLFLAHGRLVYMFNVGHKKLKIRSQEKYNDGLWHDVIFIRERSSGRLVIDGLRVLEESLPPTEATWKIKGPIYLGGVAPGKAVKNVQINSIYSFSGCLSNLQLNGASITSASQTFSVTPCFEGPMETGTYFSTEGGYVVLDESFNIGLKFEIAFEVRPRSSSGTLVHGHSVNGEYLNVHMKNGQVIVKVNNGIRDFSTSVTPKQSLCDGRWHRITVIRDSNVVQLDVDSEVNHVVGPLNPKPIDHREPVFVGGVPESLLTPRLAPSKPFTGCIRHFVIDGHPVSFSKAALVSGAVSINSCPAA

Legend:
Assay in all cases: ELISA; plates coated with 50 nM GF or chemokine in PBS; 10 nM laminin isoform in PBS added; bound laminin detected with anti-LAMC1 or anti-LAMA3 polyclonal antibody; A450 signals greater than 0.1 taken as binding; BSA-coated wells as control; both purified
FGF-2 (human) = FGF-2 (human) (UniProt P09038)
[1] = target: platelet-derived growth factor PDGF-BB (human) (UniProt P01127)
BMP-3 = target: T1, BMP-3 (UniProt P12645)
T1 sequence: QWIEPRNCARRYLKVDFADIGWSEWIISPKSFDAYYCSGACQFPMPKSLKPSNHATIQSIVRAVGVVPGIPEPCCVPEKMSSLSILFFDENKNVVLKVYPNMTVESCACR

FGF-1 = FGF-1 (UniProt P05230)
BMP-4 = target: T2, BMP-4 (UniProt P12644)
T2 sequence: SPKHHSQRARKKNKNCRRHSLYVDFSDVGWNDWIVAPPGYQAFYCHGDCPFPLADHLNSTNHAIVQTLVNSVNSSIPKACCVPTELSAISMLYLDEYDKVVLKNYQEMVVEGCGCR

NT-3 = target: T3, NT-3 (UniProt P20783)
T3 sequence: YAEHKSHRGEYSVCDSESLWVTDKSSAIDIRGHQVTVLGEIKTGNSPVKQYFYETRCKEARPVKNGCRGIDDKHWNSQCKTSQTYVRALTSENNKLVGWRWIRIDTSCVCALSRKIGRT

PlGF-1 (human) = target: T4, PlGF-1 (human) (UniProt P49763)
T4 sequence: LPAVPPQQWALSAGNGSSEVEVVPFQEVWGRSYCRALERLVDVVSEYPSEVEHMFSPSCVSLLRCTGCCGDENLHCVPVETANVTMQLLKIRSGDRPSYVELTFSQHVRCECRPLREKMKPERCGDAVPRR

FGF-18 = FGF-18 (UniProt O76093)
CXCL-11 = target: T5, CXCL-11 (UniProt O14625)
T5 sequence: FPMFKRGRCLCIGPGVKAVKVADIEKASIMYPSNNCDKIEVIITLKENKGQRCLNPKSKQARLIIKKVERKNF

BMP-2 = target: T6, BMP-2 (UniProt P12643)
T6 sequence: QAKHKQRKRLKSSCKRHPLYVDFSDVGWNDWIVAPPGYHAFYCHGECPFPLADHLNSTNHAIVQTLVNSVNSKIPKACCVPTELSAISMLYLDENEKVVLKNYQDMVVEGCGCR

[2] = target: C–X–C motif ligand (CXCL)-12γ (UniProt P48061)
FGF-7 = target: T7, FGF-7 (UniProt P21781)
T7 sequence: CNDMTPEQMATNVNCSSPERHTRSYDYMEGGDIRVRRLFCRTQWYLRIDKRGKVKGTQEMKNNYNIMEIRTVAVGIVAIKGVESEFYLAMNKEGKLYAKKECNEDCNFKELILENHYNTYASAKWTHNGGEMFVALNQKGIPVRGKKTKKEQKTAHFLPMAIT

IGF-1 = IGF-1 (UniProt P05019)
FGF-6 = target: T8, FGF-6 (UniProt P10767)
T8 sequence: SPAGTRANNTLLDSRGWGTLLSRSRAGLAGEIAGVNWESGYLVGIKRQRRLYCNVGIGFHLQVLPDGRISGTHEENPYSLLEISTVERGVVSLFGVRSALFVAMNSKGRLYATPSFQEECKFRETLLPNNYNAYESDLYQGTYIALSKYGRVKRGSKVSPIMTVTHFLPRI

binding (FGF-2 (human)) | binding [1] | binding (BMP-3) | binding (FGF-1) | binding (BMP-4) | binding (NT-3) | binding (PlGF-1 (human)) | binding (FGF-18) | binding (CXCL-11) | binding (BMP-2) | binding [2] | binding (FGF-7) | binding (IGF-1) | binding (FGF-6) | Substance
binds | binds | binds | no binding (tested: 10 nM laminin) | no binding (tested: 10 nM laminin) | binds | no binding (tested: 10 nM laminin) | binds | no binding (tested: 10 nM laminin) | binds | binds | binds | no binding (tested: 10 nM laminin) | no binding (tested: 10 nM laminin) | recombinant human laminin-411 (from UniProt Q16363 25-1823; P07942 22-1786; P11047 34-1609) (complex)
binds | binds | binds | no binding (tested: 10 nM laminin) | no binding (tested: 10 nM laminin) | binds | no binding (tested: 10 nM laminin) | binds | no binding (tested: 10 nM laminin) | binds | binds | binds | no binding (tested: 10 nM laminin) | no binding (tested: 10 nM laminin) | recombinant human laminin-421 (from UniProt Q16363 25-1823; P55268 33-1798; P11047 34-1609) (complex)
